The text below walks through data of publication PMC4814574.

By UniProt entry, the sequences of proteins in these tests, tags left out.
UniProt Q92830: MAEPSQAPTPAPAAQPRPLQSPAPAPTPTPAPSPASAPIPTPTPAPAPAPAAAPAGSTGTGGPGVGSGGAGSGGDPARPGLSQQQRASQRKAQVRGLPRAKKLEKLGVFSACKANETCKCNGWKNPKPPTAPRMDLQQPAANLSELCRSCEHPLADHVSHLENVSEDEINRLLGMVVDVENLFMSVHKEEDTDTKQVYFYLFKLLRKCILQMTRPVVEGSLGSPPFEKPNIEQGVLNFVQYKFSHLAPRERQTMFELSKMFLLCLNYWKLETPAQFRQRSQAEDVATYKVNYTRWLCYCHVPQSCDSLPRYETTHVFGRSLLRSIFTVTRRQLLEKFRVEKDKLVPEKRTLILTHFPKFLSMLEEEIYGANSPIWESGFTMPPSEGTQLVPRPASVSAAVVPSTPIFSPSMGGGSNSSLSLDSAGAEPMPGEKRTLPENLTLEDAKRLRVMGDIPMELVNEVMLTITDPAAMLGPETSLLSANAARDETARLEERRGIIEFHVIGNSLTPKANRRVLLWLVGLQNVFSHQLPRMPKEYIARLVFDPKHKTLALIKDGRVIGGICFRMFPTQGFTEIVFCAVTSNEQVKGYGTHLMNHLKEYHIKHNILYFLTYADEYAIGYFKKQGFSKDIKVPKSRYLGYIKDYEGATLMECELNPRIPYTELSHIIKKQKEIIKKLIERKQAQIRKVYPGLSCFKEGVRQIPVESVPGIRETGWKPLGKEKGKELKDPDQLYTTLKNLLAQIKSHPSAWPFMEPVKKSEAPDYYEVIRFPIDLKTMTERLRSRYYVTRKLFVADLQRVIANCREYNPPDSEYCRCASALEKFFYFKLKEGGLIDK
UniProt Q92831: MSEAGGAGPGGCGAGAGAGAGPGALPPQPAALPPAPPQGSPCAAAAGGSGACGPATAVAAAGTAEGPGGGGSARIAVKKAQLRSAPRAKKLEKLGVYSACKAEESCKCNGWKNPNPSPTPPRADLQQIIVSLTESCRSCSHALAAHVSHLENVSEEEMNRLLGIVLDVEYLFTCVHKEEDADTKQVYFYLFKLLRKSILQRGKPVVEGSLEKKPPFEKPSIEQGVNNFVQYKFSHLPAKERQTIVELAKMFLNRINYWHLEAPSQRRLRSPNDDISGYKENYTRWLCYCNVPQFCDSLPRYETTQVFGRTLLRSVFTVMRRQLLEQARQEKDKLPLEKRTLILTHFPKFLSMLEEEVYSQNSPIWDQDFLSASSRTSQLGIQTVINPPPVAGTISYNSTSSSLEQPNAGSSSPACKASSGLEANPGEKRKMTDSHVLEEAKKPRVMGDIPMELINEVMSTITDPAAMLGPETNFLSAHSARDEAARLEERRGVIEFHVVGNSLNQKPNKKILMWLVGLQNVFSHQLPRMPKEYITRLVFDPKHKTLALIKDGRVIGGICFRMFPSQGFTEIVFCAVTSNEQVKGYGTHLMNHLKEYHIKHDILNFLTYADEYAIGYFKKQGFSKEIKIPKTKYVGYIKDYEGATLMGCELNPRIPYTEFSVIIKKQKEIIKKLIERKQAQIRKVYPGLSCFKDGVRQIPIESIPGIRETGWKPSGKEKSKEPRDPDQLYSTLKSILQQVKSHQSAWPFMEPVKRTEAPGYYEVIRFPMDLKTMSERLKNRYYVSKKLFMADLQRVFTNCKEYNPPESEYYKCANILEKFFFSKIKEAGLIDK

These are yes or no findings as the source states them, for the method shown. In cells and extracts the contact can be indirect. Some entries that bind do so weakly or less than the wild type. For some assays here: Where a sequence is shown, tags or fusion partners need not be part of it.

The target of assay [1] is general control non-derepressible 5 (GCN5) (UniProt Q92830). As to the kind of experiment: co-IP; 293T cells co-transfected; 1 mg whole cell lysate in 50 mM Tris-HCl, 150 mM NaCl, 1 mM EDTA, 1% Triton X-100; anti-FLAG M2 agarose beads overnight at 4 °C; washed thrice with TBS; immunoblot with FLAG and V5 antibodies.
Assay [2] addresses PCAF (p300/CBP associated factor, a GCN5 homologue) (UniProt Q92831). In words: co-IP; co-immunoprecipitation (Supplementary Fig. 1d); cells, bait and antibodies not given.
For assay [3], the target named is general control non-derepressible 5 (GCN5) (UniProt Q92830). Described as above.
Assay [4] deals with FLAG-tagged WT C/EBPα (human) (UniProt P49715). In words: co-IP; dimerization assay: 293T cells co-transfected with V5-tagged WT or mutant C/EBPα and FLAG-tagged WT C/EBPα; lysates 24 h after transfection; anti-FLAG M2 affinity gel, 2 h at 4 °C; washed thrice with TBS.
The target of assay [5] is T1, CCAAT/enhancer-binding protein alpha (C/EBPα) WT, 42-kDa human, V5-His-tagged (human), P49715.
T1 chain: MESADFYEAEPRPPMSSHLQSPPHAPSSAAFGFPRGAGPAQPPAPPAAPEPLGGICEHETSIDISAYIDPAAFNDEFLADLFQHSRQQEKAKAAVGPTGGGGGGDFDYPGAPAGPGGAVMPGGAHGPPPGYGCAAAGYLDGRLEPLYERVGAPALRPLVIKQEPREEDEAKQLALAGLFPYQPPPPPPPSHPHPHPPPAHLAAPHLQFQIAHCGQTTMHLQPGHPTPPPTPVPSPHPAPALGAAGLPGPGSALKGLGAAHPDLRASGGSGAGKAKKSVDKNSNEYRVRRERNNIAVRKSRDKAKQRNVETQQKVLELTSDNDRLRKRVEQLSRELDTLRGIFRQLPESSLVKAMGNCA
The description is as above. The settings on record: remark: other sources report otherwise.

Consider “C/EBPα 204-358 (from UniProt P49715 204-358) (domain or fragment)”, for which the binding result in assay [1] is “no binding”.

As for “C/EBPα 1-207 (from UniProt P49715 1-207) (domain or fragment)”, the binding entry in assay [1] was “binds”.

Turning to “C/EBPα p30/120-358 (from UniProt P49715-1 120-358) (domain or fragment)”, in assay [1], the binding result is “binds”.

On to “CCAAT/enhancer-binding protein alpha (C/EBPα) WT, 42-kDa human, V5-His-tagged (from UniProt P49715 1-358)”, for which the binding entry in assay [2], in assay [3] and in assay [1] was “binds” each time.

Take “C/EBPα K298, 302Q (K2Q), V5-His-tagged (from UniProt P49715 1-358)”: the binding result in assay [4] is listed as “binds”.

B1: CCAAT/enhancer-binding protein alpha (C/EBPα) WT, 42-kDa human, V5-His-tagged, P49715 1-358 (protein)
chain: MESADFYEAEPRPPMSSHLQSPPHAPSSAAFGFPRGAGPAQPPAPPAAPEPLGGICEHETSIDISAYIDPAAFNDEFLADLFQHSRQQEKAKAAVGPTGGGGGGDFDYPGAPAGPGGAVMPGGAHGPPPGYGCAAAGYLDGRLEPLYERVGAPALRPLVIKQEPREEDEAKQLALAGLFPYQPPPPPPPSHPHPHPPPAHLAAPHLQFQIAHCGQTTMHLQPGHPTPPPTPVPSPHPAPALGAAGLPGPGSALKGLGAAHPDLRASGGSGAGKAKKSVDKNSNEYRVRRERNNIAVRKSRDKAKQRNVETQQKVLELTSDNDRLRKRVEQLSRELDTLRGIFRQLPESSLVKAMGNCA
For B1, in assay [5], the binding result is “binds”.
